Reference: paper PMC10323441
Results are given in words; binding and its absence hold for the method and conditions named. In cells and extracts the contact can be indirect. Some entries that bind do so weakly or less than the wild type. For some of these results: Tags and fused reporters may be left off the sequences shown.

Amino acid sequences for entries named in this document (tags omitted). A change or cut given only in a name is not applied to a line headed by its entry.
UniProt Q12798: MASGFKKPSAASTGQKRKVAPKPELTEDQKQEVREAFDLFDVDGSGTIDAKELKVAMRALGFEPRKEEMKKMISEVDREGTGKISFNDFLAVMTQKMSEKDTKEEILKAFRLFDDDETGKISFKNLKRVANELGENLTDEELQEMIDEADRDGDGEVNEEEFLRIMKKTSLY
UniProt O75838: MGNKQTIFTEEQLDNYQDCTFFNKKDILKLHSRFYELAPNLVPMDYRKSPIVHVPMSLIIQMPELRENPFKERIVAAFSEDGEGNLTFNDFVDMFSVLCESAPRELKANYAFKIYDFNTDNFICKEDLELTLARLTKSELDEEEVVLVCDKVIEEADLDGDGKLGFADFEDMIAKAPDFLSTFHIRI

Legend:
[1] = target: RFP-tagged centrin 1 (UniProt Q12798); assay: co-IP; RFP-Trap agarose beads; lysates of co-transfected HEK293T cells (RFP-tagged protein or RFP alone with HA- or SF-tagged protein); 10 mM Tris-Cl pH 7.5, 150 mM NaCl, 0.5 mM EDTA; 2 h at 4°C; Western blot
[2] = target: T1, 3xHA-tagged C-terminal fragment of ADGRV1 (3xHA-ADGRV1_CTF) (human) (UniProt Q8WXG9); assay: co-IP; reciprocal: anti-HA agarose beads hold the 3xHA-tagged protein; lysates of co-expressing HEK293T cells; Western blot
T1 sequence: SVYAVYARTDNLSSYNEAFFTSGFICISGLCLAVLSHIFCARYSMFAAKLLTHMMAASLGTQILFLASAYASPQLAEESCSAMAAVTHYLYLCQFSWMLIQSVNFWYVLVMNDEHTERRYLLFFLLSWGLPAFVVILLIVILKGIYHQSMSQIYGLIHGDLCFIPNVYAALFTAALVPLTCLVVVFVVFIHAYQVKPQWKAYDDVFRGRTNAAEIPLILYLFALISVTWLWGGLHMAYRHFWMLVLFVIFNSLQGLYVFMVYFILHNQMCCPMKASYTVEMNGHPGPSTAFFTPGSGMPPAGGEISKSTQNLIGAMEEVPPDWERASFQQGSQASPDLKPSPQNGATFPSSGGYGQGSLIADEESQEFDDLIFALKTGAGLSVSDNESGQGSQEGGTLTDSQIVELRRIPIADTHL

[3] = target: T2, FLAG-myc-tagged CCT3 (human (from the printed UniProt entry)) (UniProt P49368); assay: co-IP; anti-FLAG M2 beads hold FLAG-myc-CCT3; lysates of co-expressing HEK293T cells in TAP lysis buffer; 1 h at 4°C; Western blot with antibodies against FLAG and HA
T2 sequence: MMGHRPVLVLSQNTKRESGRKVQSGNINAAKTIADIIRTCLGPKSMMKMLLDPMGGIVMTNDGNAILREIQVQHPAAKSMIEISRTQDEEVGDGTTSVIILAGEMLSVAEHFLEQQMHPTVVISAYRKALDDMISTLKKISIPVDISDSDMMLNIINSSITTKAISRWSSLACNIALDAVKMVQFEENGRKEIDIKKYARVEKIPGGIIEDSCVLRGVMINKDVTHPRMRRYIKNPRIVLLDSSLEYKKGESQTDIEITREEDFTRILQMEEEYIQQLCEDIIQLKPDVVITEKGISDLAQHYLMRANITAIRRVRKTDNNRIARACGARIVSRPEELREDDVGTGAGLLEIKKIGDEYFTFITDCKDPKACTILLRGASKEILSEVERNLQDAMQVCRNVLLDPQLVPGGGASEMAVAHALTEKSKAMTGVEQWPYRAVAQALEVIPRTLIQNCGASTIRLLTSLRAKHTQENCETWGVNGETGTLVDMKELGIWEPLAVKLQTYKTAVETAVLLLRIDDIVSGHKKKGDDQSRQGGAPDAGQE

binding [1] | Substance | also measured
no binding | Strep-II-FLAG (SF)-tagged ADGRV1a (from UniProt Q8WXG9-1 4340-6306) (receptor) | –
no binding | Strep II-FLAG (SF)-tagged CIB2 isoform 1 (from UniProt O75838-1 1-187) | –
– | RFP-tagged CIB2 (mRFP-CIB2) (from UniProt O75838 1-187) | binding [2]: binds
– | 3xHA-tagged centrin 1 (from UniProt Q12798 1-172) | binding [3]: no binding
